The record followed here is publication PMC6316070 (Marine Drugs, 2018).

Values after ≈ are worked out from the molar mass of the structure shown. Where two headings read alike, the source gives them in different places. Marks after values point to notes of the source that are not given here. Starred links: 1 amine or outer side, 2 acyl side, 3 side chain; linkers in the order of their positions; H or OH if unused. Non-standard residues stand in square brackets, D forms with d. Residues, ends and D or L forms follow the SMILES beside them. Pentanoyl(2-O,4-OH,5-Cl) = O=C(O)C(O)CC(O)CCl; X3 = C[C@H]1CCN([*:1])[C@@H]1C(=O)[*:2]; X2 = O=C([C@@H](CC(O)CCl)O[*:1])[*:2]; dLac(3-vinyl) = C=CC[C@@H](O)C(=O)O; NMeI = CC[CH](C)[CH](NC)C(=O)O; X1 = CC1CCN([*:1])C1C(=O)[*:2]; dHica = CC(C)C[C@@H](O)C(=O)O; NMeV = CN[C@H](C(=O)O)C(C)C; NMeA = CN[CH](C)C(=O)O; βAla = NCCC(=O)O Where only a bound is given, the exact number is not on record here.

Data set [1] concerns Heterodera avenae. In words: whole plant or invertebrate. Conditions: 48 h, read-out: Nematicidal activity (LC50).
The test system of the next data set is Rhizoctonia cerealis. The data set is described as follows: microbe, parasite or virus in culture. Conditions: Ceratobasidium cereale.
The next data set has as its system Valsa mali. The data set is described as follows: microbe, parasite or virus in culture. Conditions: Cytospora mali.
Data set [2] relates to Heterodera avenae. Conditions: in vivo.
The mark [3] stands for this setting: read-out: Antifungal activity MIC, R. cerealis, broth microdilution.
Where [4] appears, read: read-out: Antifungal activity MIC, V. mali, broth microdilution.
The mark [5] stands for this setting: read-out: Antifungal activity MIC, R. cerealis.
[6] abbreviates: read-out: Antifungal activity MIC, V. mali.

Turning to `CCC(C)C1NC(=O)C2C(C)CCN2C(=O)C(CC(O)CCl)OC(=O)CCNC(=O)C(C)N(C)C(=O)C(C(C)CC)N(C)C1=O` (stereo not drawn) [Compound 1, Trichomide D] (cyclo([X1]I[NMeI][NMeA][βAla][Pentanoyl(2-O,4-OH,5-Cl)]); configuration not given here), in the data set on Heterodera avenae [1], the LC50 – broadly, the concentration that kills 50% of the test population – amounted to 94.9 µg/mL (≈ 144 µM). The MIC amounted to 128 µg/mL (≈ 194 µM) with Rhizoctonia cerealis (setting [3]) and 256 µg/mL (≈ 389 µM) in the data set with Valsa mali (setting [4]).

Consider `C=CC[C@H]1OC(=O)CCNC(=O)[C@H](C)N(C)C(=O)[C@H]([C@@H](C)CC)N(C)C(=O)[C@H]([C@@H](C)CC)NC(=O)[C@@H]2[C@@H](C)CCN2C1=O` [Compound 2, destruxin A5] (cyclo(I[NMeI][NMeA][βAla][dLac(3-vinyl)][X3])), for which the LC50 in the data set with Heterodera avenae [1] turned out to be 144 µg/mL (≈ 237 µM).

`CC[C@H](C)[C@@H]1NC(=O)[C@@H]2[C@@H](C)CCN2C(=O)[C@@H](C[C@@H](C)CO)OC(=O)CCNC(=O)[C@H](C)N(C)C(=O)[C@H]([C@@H](C)CC)N(C)C1=O` [Compound 3, trichomide A]: the 50% lethal concentration (LC50) in the data set on Heterodera avenae [1] is over 500 µg/mL.

As for `CC[C@H](C)[C@@H]1NC(=O)[C@@H]2CCCN2C(=O)[C@@H](CC(C)C)OC(=O)CCNC(=O)[C@H](C)N(C)C(=O)[C@H]([C@@H](C)CC)N(C)C1=O` [Compound 4, homodestruxin B] (cyclo(I[NMeI][NMeA][βAla][dHica]P)), the LC50 with Heterodera avenae [1] was determined as 222 µg/mL (≈ 365 µM). Besides, the MIC in the data set with Rhizoctonia cerealis (setting [3]) turned out to be 256 µg/mL (≈ 421 µM); with Valsa mali (setting [4]), 128 µg/mL (≈ 211 µM).

In the case of `CC[C@H](C)[C@@H]1NC(=O)[C@@H]2CCCN2C(=O)[C@@H](CC(O)CCl)OC(=O)CCNC(=O)[C@H](C)N(C)C(=O)[C@H](C(C)C)N(C)C1=O` (stereo partly drawn) [Compound 5, destruxin chlorohydrin] (cyclo(I[NMeV][NMeA][βAla][X2]P)), the LC50 in the data set with Heterodera avenae [1] amounted to 208 µg/mL (≈ 330 µM).

On to `C=CC[C@H]1OC(=O)CCNC(=O)[C@H](C)N(C)C(=O)[C@H](C(C)C)N(C)C(=O)[C@H]([C@@H](C)CC)NC(=O)[C@@H]2[C@@H](C)CCN2C1=O` [Compound 6, roseotoxin B] (cyclo(I[NMeV][NMeA][βAla][dLac(3-vinyl)][X3])), for which the LC50 in the data set on Heterodera avenae [1] amounted to 293 µg/mL (≈ 496 µM).

Regarding `CC[C@H](C)[C@@H]1NC(=O)[C@@H]2[C@@H](C)CCN2C(=O)[C@@H](CC(C)CO)OC(=O)CCNC(=O)[C@H](C)N(C)C(=O)[C@H](C(C)C)N(C)C1=O` (stereo partly drawn) [Compound 7, roseotoxin C], in the data set with Heterodera avenae [1], the LC50 was over 500 µg/mL.

Turning to `CC(=O)OCC(C)=CCCC(C)(O)C1CCC(C)(O)C1C` (stereo not drawn) [Compound 8, Cyclonerodiol C], the LC50 in the data set with Heterodera avenae [1] was over 500 µg/mL. Further, the MIC in the data set with Rhizoctonia cerealis (setting [5]) and in the data set on Valsa mali (setting [6]) was 128 µg/mL (≈ 429 µM) each time.

As to `CC1C(C(C)(O)CC=CC(C)(C)O)CCC1(C)O` (stereo not drawn) [Compound 9, Cyclonerodiol D], the LC50 in the data set on Heterodera avenae [1] is over 500 µg/mL. The results for the MIC in the data set on Rhizoctonia cerealis (setting [5]) and in the data set with Valsa mali (setting [6]) were 128 µg/mL (≈ 499 µM) and 64 µg/mL (≈ 250 µM), respectively.

As for `CC(=CCCC(C)(O)C1CCC(C)(O)C1C)C(=O)O` (stereo not drawn) [Compound 10, ascotrichic acid], the median lethal concentration (LC50) in the data set with Heterodera avenae [1] is over 500 µg/mL.

Take `CC(C)(C)C(O)(CCc1ccc(Cl)cc1)Cn1cncn1` (stereo not drawn) [Tebuconazole, tebuconazole, reference compound]: the MIC was found to be 8 µg/mL (≈ 26 µM) in the data set on Rhizoctonia cerealis (setting [5]) and 16 µg/mL (≈ 52 µM) in the data set on Valsa mali (setting [6]).

Consider abamectin, for which the “Nematicidal activity (LC50)” value in the data set with Heterodera avenae [2] is 23.1 ^b μg/mL.
